# “And” between values parts separate entries of the source, which are not always exact repeats. Identical values can stand only once.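 Tested at 5 concentrations; 48 h exposure; 96-well plates; endpoints linearly interpolated, else capped at highest concentration. GI50 is the concentration that inhibits growth by half. TGI: concentration producing complete growth inhibition.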
# Tested on: NCI-H322M lung
# Experiment: NCI-60 cell line screen, 48 h
Structure (SMILES),GI50,TGI
CCN(CC)Cc1cc(Nc2c3ccccc3nc3cc(Cl)ccc23)ccc1O,2.07 µM,5.62 µM
Cc1ccc(S(=O)(=O)NC(CO)C(=O)O)cc1 (stereo not drawn),,> 100 µM
O=C(/C=C/c1ccco1)c1ccc(Nc2nc(Nc3ccc(F)cc3)nc(Nc3ccc(F)cc3)n2)cc1,3.61 µM,> 100 µM
C(#Cc1ccccc1)SC1=C(c2ccccc2)S/C(=C(\SC#Cc2ccccc2)c2ccccc2)S1,,> 100 µM
COc1cc2c3c(cc(Cl)nc3c1OC)C(O)(CC(=O)c1ccccc1)C(=O)N2 (stereo not drawn),,32.5 µM
C#CCOCn1cnc2ncnc(N)c21,,> 100 µM
COC1CC(OC2C(C)OC(OC3C(C)OC(OC4C(C)OC(O[C@H]5CC[C@@]6(C)C(=CC[C@]7(O)[C@@H]6C[C@@H](O)[C@@]6(C)[C@]7(O)CC[C@@]6(O)C(C)=O)C5)CC4OC)CC3OC)CC2OC)OC(C)C1O (stereo partly drawn),,> 12.5 µM
C/C(CC(=O)Nc1cccc([N+](=O)[O-])c1)=N\NC(=O)CC#N,,> 100 µM
COc1ccc(C2=Nc3c/c(=C\c4c(O)[nH]c5cc(Cl)ccc45)ccc3=N2)cc1,17 µM,49.6 µM
CCCCCCCCCCCCCCCC1(OC)C[N+](C)(C)CCO1 (stereo not drawn),,33.9 µM
CC(N1CCOCC1)C(O)(c1ccccc1)c1ccccn1 (stereo not drawn),,> 100 µM
COc1cc2c(cc1OCCCOc1ccc(-c3nc4ccc(N5CCN(C)CC5)cc4[nH]3)cc1)N=C[C@@H]1CCCN1C2=O,< 0.01 µM,< 0.01 µM
O=c1[nH]cc(C(F)(C(F)(F)F)C(F)(F)F)c(=O)[nH]1,,> 100 µM
COC(=O)/C(=N\Nc1nnc(C)n1N)C(C#N)c1ccccc1 (stereo not drawn),,> 100 µM
O=C(N/N=C\c1ccc([N+](=O)[O-])s1)c1ccncc1,,> 85.6 µM
COc1ccc2c(c1)CCC/C2=N\NS(=O)(=O)c1c(C)cc(C)cc1C,,> 100 µM
CC(C)N1C(C)[C@@H](c2ccccc2)O[P@]1(=O)CC1=CCCCC1 (stereo partly drawn),,> 100 µM
CC(=O)[C-](C(C)=O)c1ccccc1.CC(=O)[C-](C(C)=O)c1ccccc1.CC(=O)[C-](C(C)=O)c1ccccc1.[Cl-].[Zr+4],> 100 µM,> 100 µM
O=S(=O)(O)SCCNCCCCCC1CCCCC1,,23.6 µM
C/C(=N\NS(=O)(=O)c1ccc([N+](=O)[O-])cc1)c1ccc[n+]([O-])n1,,19.8 µM
Clc1cc2nnn(C3CCCO3)c2cc1Cl (stereo not drawn),,> 100 µM
COc1cc(-c2cc(=O)c3c(O)c(OC)c(OC)c(OC)c3o2)cc(OC)c1OC,,> 100 µM
O=C(Nc1cccc(C(F)(F)F)c1)c1cc2ccccc2cc1O,2.43 µM,> 26.1 µM
Cc1ccc(/C=C2/N=C(N/N=C\c3ccccc3)NC2=O)cc1,,> 100 µM

Structure (SMILES),GI50,TGI
CC(=O)c1sc2[n+](c1C)C(=O)/C(=C\c1ccccc1Cl)S2,,> 100 µM
CC1=CC(=O)NP(=O)(C23CC4CC(CC(C4)C2)C3)N1 (stereo not drawn),,> 100 µM
O=c1c2ccccc2nc(-c2ccccc2)n1NC(=S)Nc1cccc(Cl)c1,,> 100 µM
CN(C)/C=C/C=C(/C=N/S(=O)(=O)C(F)(F)F)C1C=CN(S(=O)(=O)C(F)(F)F)C=C1,,> 100 µM
Cc1c2ccncc2c(C)c2c1[nH]c1ccc(Cl)cc12,1.89 µM and 3.09 µM,6.26 µM and 26 µM
O=C(CCCCCCCCC(=O)N/N=C\c1cc(Cl)ccc1O)N/N=C\c1cc(Cl)ccc1O,0.213 µM,> 100 µM
CCOC(=O)/C=C/[C@@H](CC)O[Si](C(C)C)(C(C)C)C(C)C,,> 100 µM
COc1cccc2c1cc1c3c(cc4c(c32)OCO4)C(=O)N1,2.29 µM,6.26 µM
N#CC(C(=O)CCCC(=O)Nc1ccc(Cl)cc1Cl)c1ccc(Cl)cc1 (stereo not drawn),,> 100 µM
COc1ccc(-c2nc(C(=O)c3ccccc3)n(CC(=O)c3ccc(Cl)cc3)c2-c2ccc(OC)cc2)cc1,> 100 µM,> 100 µM
Cc1cc(Br)cc(C)c1NC(=O)C(=O)Nn1c(=S)[nH]c2ccccc2c1=O,,> 100 µM
COc1cc(C(C#N)NNc2nc(C)cc(=O)[nH]2)cc(OC)c1OC (stereo not drawn),,> 100 µM
CCCCNC1=C(C(=O)OCC)/C(=N/NC(=O)c2ccccc2O)CO1,,> 100 µM
Cc1cc2ccc(N)nc2[nH]c1=O,,> 100 µM
CCCCCCCCCCCCOP(=O)(O)OP(=O)(O)OCC1OC(n2cc(C)c(=O)[nH]c2=O)CC1O (stereo not drawn),,> 100 µM
CN(C(=O)CNC(=O)/C=C/c1cccc(Cl)c1)C1CCS(=O)(=O)CC1,20.6 µM,> 100 µM
CCOC(=O)C(C/C=C/CO)N(C)C(=O)OC(C)(C)C (stereo not drawn),,> 100 µM
CCCOC(=O)C1C2CCC(O2)C1C(=O)O (stereo not drawn),,> 100 µM
Cc1cc(=O)oc2c(CNC(CC(C)C)C(=O)O)c(O)ccc12 (stereo not drawn),,> 100 µM
COc1ccc2c([nH]c3c(O)c(-c4c(C)cc5c([nH]c6c(CC=C(C)C)c(OC)ccc65)c4O)c(C)cc32)c1CC=C(C)C,,> 100 µM
Cc1ccc(NC(=O)CC(=O)n2nc(C)c(N=Nc3cccc(C)c3)c2C)cc1,,> 100 µM
O=c1[nH]nc(-c2ccccc2)n1-n1cnnc1,,> 100 µM
CC(C)NC(=O)OCc1c(COC(=O)NC(C)C)c(-c2cc[n+](COC(=O)C3CCCCC3)cc2)n2c1CCC2,,> 100 µM

# Source: PubChem BioAssay (NCI)
